Laboratory results from the supplement of paper PMC11417369.
This is one part of the list.

system: PfSIP2 AP2 domain 1 (GST-tagged); assay: gcPBM binding intensity (ln(normalized median fluorescence intensity)); higher = stronger DNA binding
Summary of the method: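 GST-fused DNA-binding domains of P. falciparum, expressed in E. coli, were applied at about 25 μg on average for 1 h to an Agilent 4 × 180k array of primer-extended double-stranded 36-bp intergenic genomic probes and negative controls. Binding intensity is the highest Masliner-normalised natural-log median intensity across replicate spots of either probe orientation, measured with Alexa488 anti-GST antibody and a 488 nm scan.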

Sequence | gcPBM binding intensity (ln)
AGGCACTTATAATAATGTACATAAATAAAAAGAAAA [XGTACX_site6037] | 7.02
TTCTGCAGCAATGTTTTTTTTAAATATTTATATGGT [CACACA_negctrl_site1815] | 7.16
AAAAAAATAACAAAGTGTACTTTTATATTTTACATA [XGTACX_site8954] | 6.78
GCTAGTTTTTTTTGGCGTACAGTACCGGTTTACTTT [XGTACX_site2606] | 7.69
TTCCTCTTAATATGTGCACACTAAATTATAACATAA [CACACA_site3260] | 10
CATACCATACATAAAACACACAAAATTTACATAATA [CACACA_site3100] | 7.02
TATAGTTTTATTATTTATGTGTTAAAATTATACAAG [TGCATGCA_negctrl_site246] | 7.15
AAAAAAAAAAAAAAATGTACATATTAAGTATAATTA [XGTACX_site4616] | 7.23
TTAGCTCAATTTTTGGGTACACACAAATGTATAATA [XGTACX_site5003] | 6.97
GAAAAATGTAAATACATATATGTACACAAATATATA [GTGCAC_negctrl_site557] | 7.12
AATATTTATAAATTTACACACACACGGGTGAACATA [CACACA_site6979] | 6.96
TTTAATTCCATAAGTAAACACACAAATGCCAAAATT [CACACA_site9049] | 7.1
ATTCTAAATTAAAATACACACATATATACATAATAT [CACACA_site2792] | 7.22
AAAAAAAATATATATATTAAAGTTTTAATTTTTATA [CACACA_negctrl_site497] | 6.75
TTAGAATTTAGAGAAGTGCATATTAAGTTACGAATT [GTGCAC_site9861] | 8.14
ATTATATATATATATAGTACTTTTTTTTTTTTTTTT [XGTACX_site8801] | 7.5
ATAATAATTTTATGCACACAGAAAAATACAAGGTTA [CACACA_site3510] | 7.46
TTATTGGTTATATAAAGTACATTTGAAATATAATTG [XGTACX_site6553] | 7.08
TTGCCTGACTTGTTCACACATATTTATGATATACAT [CACACA_site5783] | 6.89
TTTTCTTGGTATATGATTTATCCTAAATAAGTAAAT [CACACA_negctrl_site294] | 6.84
TGTATTATAATATTATGTACTTATAAATTTTATATT [XGTACX_site6432] | 7.1
AATTTAAAGTTTTTTTTTTTTTTTTTTTTTTTTTTG [CACACA_negctrl_site1082] | 6.78
TGGGTGGTAAAAATGTGTACATAAAAAAATAATGTT [XGTACX_site2235] | 7.48
TCTCACATTCTTATGGGTACACATGAGAAATTATAA [XGTACX_site6799] | 7.01
